These results are taken from ChEMBL document CHEMBL4888484, “Replenishing the malaria drug discovery pipeline: Screening and hit evaluation of the MMV Hit Generation Library 1 (HGL1) against asexual blood stage Plasmodium falciparum ,using a nano luciferase reporter read-out” (2022).

Molecules are shown by their SMILES. Hit rate of the full screen: of about 150,000 compounds, about 540 (0.36%) showed an effect of 50% or more. The list shows a part of the results.

The test system of this assay is Plasmodium falciparum. In words: Primary screen in NF54 nanoGlo assay, in single point, at 2uM, 72h; a lower Z score goes with more inhibition. Particulars: timepoint 72 hour. Format: functional, Erythrocyte.
Consider `Cc1nc(C)c(CNc2ccc(C#N)c(C)n2)s1`, for which the “% Inhibition” value was -7% and the Z score worked out at 0.75.
Regarding `CCN(C[C@H]1CCN(C(=O)c2cccc(=O)[nH]2)C1)CC(F)(F)F`, the “% Inhibition” value is -3% and the Z score is reported as 0.54.
The like results for `CCc1nnc2c(=O)n(CC(=O)Nc3ccccc3F)c3ccccc3n12` were, in that order, -13% and 2.16.
The corresponding values for `OC[C@@H]1COCCN(CCn2cc(Cl)cn2)C1` are -1% and 0.12.
Consider `CO[C@@H](CNS(=O)(=O)c1ccc(C)c(C(=O)O)c1C)C(C)(C)C`, for which the “% Inhibition” value was -7% and the Z score stood at 0.71.
In the case of `Cc1ccc(F)c(N2CCC[C@H](NC(=O)c3cn[nH]c(=O)c3)C2)c1`, the “% Inhibition” value was -9% and the Z score was determined as 1.23.
For the molecule `Cc1noc(C)c1CCC(=O)Nc1nc(-c2ccc3c(c2)OCO3)cs1`, the “% Inhibition” value is reported as 1% and the Z score is -0.1.
Regarding `COc1ccc(CN(C)C[C@H]2CCCN(CCO)C2)c(C)c1`, the “% Inhibition” value worked out at 16% and the Z score is reported as -2.06.
The corresponding values for `O=C(NCC1CS(=O)(=O)c2ccccc21)N[C@H]1CCO[C@@H]1c1ccncc1` (stereo not given in full) are -11% and 1.16.
The like results for `Cc1nc(-c2ccccc2)n(CC(=O)N2CCCCCC2)n1` were, in that order, 1% and -0.11.
The like results for `COc1ccc(F)c(CN2CCC[C@@]3(CCN(Cc4ncc[nH]4)C3)C2)c1` were, in that order, 5% and -0.82.
Consider `CCc1nc(C)sc1CN1C[C@@H]2CC[C@H]1CN(C(=O)c1ccccc1)C2`, for which the “% Inhibition” value is 5% and the Z score is -0.65.
The like results for `CN(C(=O)C1CCOCC1)C1CCCCC1` were, in that order, -9% and 1.37.
The corresponding values for `Cc1cnc(NC(=O)NC[C@H](O)C(F)(F)F)cn1` are -18% and 3.59.
In the case of `CC(C)n1ccnc1CN(C)OCc1ccccc1`, the “% Inhibition” value was -11% and the Z score is on record as 1.62.
As for `O=C(O)[C@@H]1CN(C(=O)c2ccc3[nH]c4c(c3c2)CCCC4)CCN1`, the “% Inhibition” value is given as -4% and the Z score is recorded as 0.75.
Consider `COc1cccc2c1CN(C(=O)Nc1ccc(OCCC(C)C)nn1)C2`, for which the “% Inhibition” value is -10% and the Z score was determined as 1.57.
The like results for `CC(C)(C)[C@]1(C)NC(=O)N(Cc2ccccn2)C1=O` were, in that order, -2% and 0.39.
On to `O=C(NCCc1cccnc1)c1cc(O)cc(O)c1`, for which the “% Inhibition” value is -10% and the Z score was 1.04.
The corresponding values for `O=C(Nc1cccc(S(=O)(=O)N2CCCC2)c1)c1cccc(-n2cnnn2)c1` are -15% and 1.5.
The corresponding values for `CN(C)S(=O)(=O)N(CC#N)Cc1ccc(Cl)cc1F` are -3% and 0.4.
As for `CC(C)c1noc(-c2cn(Cc3c(F)cccc3F)nn2)n1`, the “% Inhibition” value is given as 0% and the Z score is on record as -0.02.
On to `Cc1cccc(OC[C@@H](O)Cn2cnc(C)c(C)c2=O)c1`, for which the “% Inhibition” value is recorded as 33% and the Z score was -0.48.
The corresponding values for `COc1ccc(N2C(=O)N[C@@H](CC(=O)NCc3cccn3C)C2=O)cc1` are 0% and 0.
For the molecule `CC(NCc1cn2ccccc2c1C#N)C(C)n1cccn1` (stereo not given), the “% Inhibition” value was -6% and the Z score worked out at 1.24.
The corresponding values for `CC(C)C(=O)Nc1nnc([C@H]2CC(=O)N(c3ccc(Cl)cc3)C2)o1` are -11% and 1.61.
The corresponding values for `O=C(c1cc(-c2cccnc2)nc2ccccc12)N1CC[C@H]2CC[C@@H](C1)N2` are -9% and 0.82.
As for `CCC1(C(=O)O[C@@H](C)c2nnc(C)o2)CCC(O)CC1` (stereo not given in full), the “% Inhibition” value was -14% and the Z score was 1.59.
Regarding `CCc1noc(C)c1C(=O)N(C)Cc1ccc2nonc2c1`, the “% Inhibition” value is recorded as -8% and the Z score was found to be 1.44.
The like results for `O=C(C1=CCCCC1)N1CCC(C2(Cc3ccc(F)cc3)NC(=O)N(CC3CCCO3)C2=O)CC1` (stereo not given) were, in that order, -10% and 1.41.
The corresponding values for `CC(=O)NCCCC(=O)N1[C@@H]2CC[C@H]1C[C@@H](c1ccc(F)c(C)c1)C2` are -6% and 1.11.
The corresponding values for `COc1ccnc2c(NC(=O)N3CCCN(C)CC3)cccc12` are 1% and -0.08.
With `Cc1cc(S(=O)(=O)N[C@@H](C)c2nncn2C(C)C)c(C)s1`, the “% Inhibition” value is -11% and the Z score was determined as 1.91.
Regarding `Cn1cccc1C(=O)N1CCC2(CC1)c1nc[nH]c1CCN2C(=O)C1CCC1`, the “% Inhibition” value was determined as 14% and the Z score is recorded as -2.5.
Turning to `O=C(NCCc1ccncc1)c1cccc(S(=O)(=O)N2CC[C@@H](O)C2)c1`, the “% Inhibition” value was -9% and the Z score stood at 1.1.
The like results for `C=CCn1cc(-c2cc(-c3[nH]c(C)c(C(=O)O)c3C)nc(N)c2C#N)cn1` were, in that order, -1% and 0.18.
The corresponding values for `CC(C)Oc1cc(N(C)CCc2cn[nH]c2)nc(N)n1` are -1% and 0.1.
The corresponding values for `COc1ccc(C2CN(C(=O)c3ccc(C)cc3)CC2C(=O)NCc2ccccn2)c(OC)c1` (stereo not given) are -13% and 1.87.
Consider `COc1ccccc1NC(=O)CN1CCC2(CC1)NC(=O)N(C)C2=O`, for which the “% Inhibition” value is -9% and the Z score turned out to be 1.78.
The corresponding values for `Cc1ccc2cc(CN3CCC(CNC(=O)c4cccc(C)n4)CC3)c(=O)[nH]c2c1` are -1% and 0.18.
The like results for `COc1ccc([C@@H](NC(=O)COc2ccc(-c3ccccc3)cc2Cl)c2nccn2C)cc1` were, in that order, 17% and -1.48.
The like results for `CC[C@H]1CCCCN1C(=O)c1cc2c(s1)CCS(=O)(=O)C2` were, in that order, -4% and 0.62.
Regarding `CC(Cc1ccco1)NC(=O)C1CCS(=O)(=O)C1` (stereo not given), the “% Inhibition” value was determined as 2% and the Z score was -0.23.
On to `Cc1cnn(CCNCC=Cc2ccccc2)c1`, for which the “% Inhibition” value was determined as 0% and the Z score is -0.06.
The like results for `COc1ccccc1OC1(C(=O)O)CCN(Cc2ccc(-c3cc[nH]n3)o2)CC1` were, in that order, -13% and 1.66.
As to `Clc1cnn([C@H]2CCN(Cc3ccc(-c4ccn[nH]4)o3)C2)c1`, the “% Inhibition” value stood at 3% and the Z score was -0.42.
The corresponding values for `COc1ccc(-c2noc([C@H](C)O)c2C(=O)N2CCCN(C(C)=O)CC2)cc1OC` are 7% and -1.23.
The corresponding values for `CCc1noc(C)c1C(=O)O[C@@H](C)C(=O)N1CC(=O)Nc2ccccc21` are -54% and 6.3.
Turning to `Cc1cc(C(=O)NCc2ccccc2CN2CCOCC2)on1`, the “% Inhibition” value was 0% and the Z score turned out to be 0.06.
In the case of `CCC1CN(C(=O)C2CCCN2S(C)(=O)=O)CCO1` (stereo not given), the “% Inhibition” value was -3% and the Z score is given as 0.47.
As for `CC(C)N(CCOc1cccc(S(C)(=O)=O)c1)C1CCC1`, the “% Inhibition” value is -12% and the Z score stood at 1.59.
The corresponding values for `C=C(C)COc1ccccc1NC(=O)[C@H]1CCCC[C@H]1C(=O)NCCCC` are 3% and -0.57.
In the case of `O=C(NC(Cc1ccncc1)[C@H]1C[C@@H](O)C1)c1cccn1C1CC1` (stereo not given in full), the “% Inhibition” value is listed as -2% and the Z score turned out to be 0.34.
As to `COc1cc(NC(=O)N2Cc3ncccc3N3CCC[C@H]3C2)n[nH]1`, the “% Inhibition” value is 4% and the Z score was -0.71.
With `Cc1c(C(=O)N(Cc2ccccc2)CC2(O)CCCC2)cnn1C`, the “% Inhibition” value is on record as 0% and the Z score is listed as -0.07.
The corresponding values for `N#Cc1ccc(N2CCOC3CCCC32)c(F)c1` (stereo not given) are 6% and -0.64.
Turning to `C=CCN(CC(=O)O)C(=O)c1cc(C)cc(F)c1`, the “% Inhibition” value was -14% and the Z score was 1.69.
On to `CC(NCc1ccc(Br)c2cccnc12)C1CCOC1` (stereo not given), for which the “% Inhibition” value is -5% and the Z score worked out at 0.52.
The corresponding values for `CCN1CCO[C@H](C(=O)NCc2ccccc2CN2CCCCCC2)C1` are -4% and 0.53.
The corresponding values for `COc1ccc(Cl)cc1-n1c(N)c(C(=O)N2CCOCC2)sc1=S` are -18% and 2.42.
On to `c1ccc(-c2nc(CN3CCC[C@H]3c3cccs3)co2)cc1`, for which the “% Inhibition” value is recorded as 1% and the Z score is given as -0.21.
Take `COc1ccc(NC(=O)C2CCN(S(=O)(=O)Cc3ccccc3)CC2)cc1`: the “% Inhibition” value is listed as -10% and the Z score is on record as 1.97.
As for `CCC(C)(C)c1ccc(OCC(N)=O)cc1`, the “% Inhibition” value was -13% and the Z score was 1.78.
As for `O=C(NCC1CCN(CC(=O)N2CCc3ccccc32)CC1)c1cnccn1`, the “% Inhibition” value is -7% and the Z score amounted to 0.87.
Consider `Cc1cccc(Cn2nc3c(S(=O)(=O)N4CCCCC4)cccn3c2=O)c1`, for which the “% Inhibition” value was -3% and the Z score stood at 0.43.
The like results for `CC(O)CC(C)NC(=O)C1COC(C)C1` (stereo not given) were, in that order, -4% and 0.59.
For `OCCOc1ccccc1CN1CCc2[nH]cnc2[C@H]1c1ccncc1`, the “% Inhibition” value is -9% and the Z score came out at 1.22.
On to `O=C1CC[C@@H]2CN(Cc3ccccc3C(F)(F)F)CC[C@@H]2N1Cc1ccc2c(c1)OCO2`, for which the “% Inhibition” value worked out at 8% and the Z score is -0.97.
Take `Cc1nc(CN2CCC[C@@](O)(CNC(=O)c3ccccc3F)CC2)co1`: the “% Inhibition” value is on record as -5% and the Z score is listed as 0.64.
For the molecule `CCc1ccc(CC)c(NC(=O)N(C)CC2(O)CCOCC2)c1`, the “% Inhibition” value was -9% and the Z score is 0.9.
On to `CC(C)CS(=O)(=O)CC(=O)N1CCC2CCCC21` (stereo not given), for which the “% Inhibition” value is -7% and the Z score was found to be 0.93.
Regarding `CC(=O)Nc1ccc(-c2sc(-c3ccc(NC(C)=O)cc3)c(-c3ccccc3)c2-c2ccccc2)cc1`, the “% Inhibition” value is reported as -8% and the Z score worked out at 1.18.
The corresponding values for `CC(=O)N[C@@H](C)C(=O)Nc1nc2ccccc2n1C1CCCC1` are -8% and 0.85.
`Cn1nccc1-c1cn([C@H]2CCOC2=O)nn1`: the “% Inhibition” value is -8% and the Z score is 1.1.
The like results for `CC(C)C[C@H]1CN(C)CCN1C(=O)c1cc(-c2ccccn2)no1` were, in that order, -5% and 0.72.
The like results for `O=C1NCCN2CCN(C(=O)COCc3ccccc3)CC[C@@H]12` were, in that order, -5% and 0.71.
The like results for `C=CCNC(=O)CN(Cc1ccco1)c1ccc(OC)c(F)c1` were, in that order, 6% and -0.62.
Take `CCc1cccc(NC(=O)Cn2c(C(=O)NCc3ccc(F)cc3F)cccc2=O)c1`: the “% Inhibition” value was -16% and the Z score is recorded as 1.57.
The like results for `COCCCC(=O)Nc1cc(S(=O)(=O)N2CCOCC2)ccc1N1CCOCC1` were, in that order, -9% and 1.79.
The corresponding values for `NC(=O)[C@H]1CCCN(C(=O)C2=CCCC2)C1` are 6% and -0.78.
Consider `Brc1cccc(C2(c3nc(C4CCCC4)no3)CCOCC2)c1`, for which the “% Inhibition” value is given as -4% and the Z score came to 0.76.
In the case of `Cn1ccc(C(=O)N2CCOC(C)(C)C2)cc1=O`, the “% Inhibition” value was -3% and the Z score is on record as 0.63.
The like results for `C[C@@H](CC(=O)N1CCCN(C(N)=O)CC1)C1CCCCC1` were, in that order, -9% and 1.35.
As to `COc1cc2c(cc1Cl)CN(Cc1nc(C3CC3)no1)CC2`, the “% Inhibition” value was -9% and the Z score came to 0.95.
The like results for `Cc1nc(CN(C)C2CCC(NC(=O)OC(C)(C)C)CC2)oc1C` (stereo not given) were, in that order, -11% and 0.94.
